Assay results: ChEMBL document CHEMBL1961873, “Compounds: GSK PKIS; Assays: Nanosyn kinase panel” (2012)
The entries are a selection whose mix differs from that of the whole data set.

target: T1, Serine/threonine-protein kinase Chk1 (Homo sapiens) (UniProt O14757); settings: at 1 µM;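 also: mean inhibition of CHEK1, part of the GSK PKIS profiling set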
T1 sequence (whole entry): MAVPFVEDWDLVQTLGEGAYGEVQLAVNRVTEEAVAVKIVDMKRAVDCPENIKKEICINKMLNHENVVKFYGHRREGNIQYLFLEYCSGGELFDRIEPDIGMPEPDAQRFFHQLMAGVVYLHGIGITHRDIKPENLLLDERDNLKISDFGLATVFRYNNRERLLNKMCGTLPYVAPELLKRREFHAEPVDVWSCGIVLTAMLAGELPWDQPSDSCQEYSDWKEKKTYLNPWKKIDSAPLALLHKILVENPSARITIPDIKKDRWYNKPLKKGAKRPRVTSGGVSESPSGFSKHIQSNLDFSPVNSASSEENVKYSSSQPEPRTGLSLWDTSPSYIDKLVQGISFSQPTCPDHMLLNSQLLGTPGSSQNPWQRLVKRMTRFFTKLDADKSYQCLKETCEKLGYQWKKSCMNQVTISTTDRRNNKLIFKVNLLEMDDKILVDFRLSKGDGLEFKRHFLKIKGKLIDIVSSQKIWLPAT

| Compound | inhibition |
| --- | --- |
| O=C(O)c1ccc(Oc2nccc(-c3c(-c4ccc(F)cc4)ncn3C3CCNCC3)n2)cc1 | 7.27% |
| CC(C)(C)c1ccc(Oc2nccc(-c3c(-c4ccc(F)cc4)ncn3C3CCNCC3)n2)cc1 | 0.23% |
| Fc1ccc(Oc2nccc(-c3c(-c4ccc(F)cc4)ncn3C3CCNCC3)n2)cc1 | 6.69% |
| COc1ccccc1C1=C(Nc2ccccc2)C(=O)NC1=O | -2.38% |
| Fc1ccc(-c2ncn(C3CCNCC3)c2-c2ccnc(Oc3ccc(Cl)cc3)n2)cc1 | -7.06% |
| NC(=O)CCc1ccccc1Oc1nccc(-c2c(-c3ccc(F)cc3)ncn2C2CCNCC2)n1 | 1.57% |
| COc1ccccc1Oc1nccc(-c2c(-c3ccc(F)cc3)ncn2C2CCNCC2)n1 | -0.09% |
| CS(=O)(=O)c1ccc(Oc2nccc(-c3c(-c4ccc(F)cc4)ncn3C3CCNCC3)n2)cc1 | -2.07% |
| Cc1cccc(Oc2nccc(-c3c(-c4ccc(F)cc4)ncn3C3CCNCC3)n2)c1C | 11.7% |
| Fc1ccc(-c2ncn(C3CCNCC3)c2-c2ccnc(Oc3cccc(F)c3)n2)cc1 | -0.91% |
| Fc1ccc(-c2ncn(C3CCNCC3)c2-c2ccnc(Oc3cccc(C(F)(F)F)c3)n2)cc1 | 8.71% |
| O=C1NC(=O)C(c2ccccc2Cl)=C1Nc1cc(Cl)c(O)c(Cl)c1 | 4.8% |
| O=C1NC(=O)C(c2ccccc2)=C1Nc1ccccc1 | -1.75% |
| O=C1NC(=O)C(c2cccc([N+](=O)[O-])c2)=C1Nc1cc(Cl)c(O)c(Cl)c1 | 1.06% |

target: Serine/threonine-protein kinase Chk2 (Homo sapiens) (UniProt O96017); settings: at 0.1 µM
UniProt O96017, sequence (O96017 whole entry): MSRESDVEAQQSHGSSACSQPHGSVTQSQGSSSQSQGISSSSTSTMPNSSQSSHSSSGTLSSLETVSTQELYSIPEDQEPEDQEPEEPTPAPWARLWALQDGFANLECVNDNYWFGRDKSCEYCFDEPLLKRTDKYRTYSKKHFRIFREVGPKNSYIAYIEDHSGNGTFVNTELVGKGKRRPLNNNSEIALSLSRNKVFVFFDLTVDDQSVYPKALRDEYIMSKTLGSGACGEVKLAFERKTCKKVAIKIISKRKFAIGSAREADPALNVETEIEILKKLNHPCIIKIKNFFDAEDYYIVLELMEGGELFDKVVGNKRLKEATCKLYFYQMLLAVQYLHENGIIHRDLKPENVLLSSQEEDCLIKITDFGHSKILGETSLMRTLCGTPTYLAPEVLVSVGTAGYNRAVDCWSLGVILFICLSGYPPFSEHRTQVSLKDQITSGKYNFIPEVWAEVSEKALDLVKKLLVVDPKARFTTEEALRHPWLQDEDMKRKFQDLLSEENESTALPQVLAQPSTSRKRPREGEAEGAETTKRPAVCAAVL

| Compound | inhibition |
| --- | --- |
| O=C(O)c1ccc(Oc2nccc(-c3c(-c4ccc(F)cc4)ncn3C3CCNCC3)n2)cc1 | 4.58% |
| CC(C)(C)c1ccc(Oc2nccc(-c3c(-c4ccc(F)cc4)ncn3C3CCNCC3)n2)cc1 | 3.51% |
| Fc1ccc(Oc2nccc(-c3c(-c4ccc(F)cc4)ncn3C3CCNCC3)n2)cc1 | 3.02% |
| COc1ccccc1C1=C(Nc2ccccc2)C(=O)NC1=O | -3.31% |
| Fc1ccc(-c2ncn(C3CCNCC3)c2-c2ccnc(Oc3ccc(Cl)cc3)n2)cc1 | -5.72% |
| NC(=O)CCc1ccccc1Oc1nccc(-c2c(-c3ccc(F)cc3)ncn2C2CCNCC2)n1 | -3.67% |
| COc1ccccc1Oc1nccc(-c2c(-c3ccc(F)cc3)ncn2C2CCNCC2)n1 | -2.71% |
| CS(=O)(=O)c1ccc(Oc2nccc(-c3c(-c4ccc(F)cc4)ncn3C3CCNCC3)n2)cc1 | 4.28% |
| Cc1cccc(Oc2nccc(-c3c(-c4ccc(F)cc4)ncn3C3CCNCC3)n2)c1C | 7.37% |
| Fc1ccc(-c2ncn(C3CCNCC3)c2-c2ccnc(Oc3cccc(F)c3)n2)cc1 | -2.09% |
| Fc1ccc(-c2ncn(C3CCNCC3)c2-c2ccnc(Oc3cccc(C(F)(F)F)c3)n2)cc1 | 1.57% |
| O=C1NC(=O)C(c2ccccc2Cl)=C1Nc1cc(Cl)c(O)c(Cl)c1 | 2.37% |
| O=C1NC(=O)C(c2ccccc2)=C1Nc1ccccc1 | -1.56% |
| O=C1NC(=O)C(c2cccc([N+](=O)[O-])c2)=C1Nc1cc(Cl)c(O)c(Cl)c1 | 1.29% |
